# Test results as given in PubChem BioAssay (Tox21).
# Inconclusive results, whose numbers are uncertain, are shown with a selection of clear calls. For part of these data: A potency beside an inconclusive call is a rough fit, not a confirmed value. Calls of active or inactive are those of the source. Unless noted, the call rests on the fitted dose curve; in most records, active means well fitted curve in the direction sought with a large enough effect in the repeat runs; inconclusive means weak or mixed curves; inactive means no such curve, though single readings can be large; an effect the other way counts as inactive or inconclusive.
# Legend:
# [1] = qHTS assay to identify small molecule antagonists of the constitutive androstane receptor (CAR) signaling pathway - cell viability counter screen (AID 1224837); further: on the % scale 0 is the no-effect control and ±100 the full control effect; nearly all actives have a fitted effect of over 45% in size
# Method in brief: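 In quantitative HTS format, compounds at 15 concentrations were applied to HepG2 cells double-transfected with hCAR and CYP2B6-2.2kb under 50 nM CITCO stimulation; live-cell protease activity was read after 23 hr via CellTiter-Fluor.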
# [2] = qHTS assay for small molecules that induce genotoxicity in human embryonic kidney cells expressing luciferase-tagged ATAD5 - cell viability (AID 651634; calls by dose curve; further: potency means the concentration at half of the fitted maximal effect; nearly all actives have a fitted effect of over 25% in size)
# Method in brief: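 Quantitative high-throughput format. HEK293T cells expressing ATAD5 fused to luciferase were plated at 2,000 cells/well and treated 15.5 hr with compound versus DMSO. Viability was determined by fluorescent live-cell protease substrate, 30 min at 37C.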
# [3] = target: Androgen receptor (Homo sapiens) (UniProt P10275); test: qHTS assay to identify small molecule agonists of the androgen receptor (AR) signaling pathway (AID 743036; active means well fitted activation curve with a large enough effect in the signal ratio in the repeat runs, with a control signal flat, not every such curve was filed as active; inconclusive means weak or mixed curves, or effect the other way; inactive means no such curve, though single readings can be large or run the other way; the % refers to the signal ratio; further: on the % scale 0 is the no-effect control and ±100 the full control effect); conditions: HEK293 AR-UAS-bla GripTite, beta-lactamase FRET ratio, 16 h; activation: at 62.4 µM (top of the series) unless noted
# Sequence of UniProt P10275 (P10275 whole entry, looked up): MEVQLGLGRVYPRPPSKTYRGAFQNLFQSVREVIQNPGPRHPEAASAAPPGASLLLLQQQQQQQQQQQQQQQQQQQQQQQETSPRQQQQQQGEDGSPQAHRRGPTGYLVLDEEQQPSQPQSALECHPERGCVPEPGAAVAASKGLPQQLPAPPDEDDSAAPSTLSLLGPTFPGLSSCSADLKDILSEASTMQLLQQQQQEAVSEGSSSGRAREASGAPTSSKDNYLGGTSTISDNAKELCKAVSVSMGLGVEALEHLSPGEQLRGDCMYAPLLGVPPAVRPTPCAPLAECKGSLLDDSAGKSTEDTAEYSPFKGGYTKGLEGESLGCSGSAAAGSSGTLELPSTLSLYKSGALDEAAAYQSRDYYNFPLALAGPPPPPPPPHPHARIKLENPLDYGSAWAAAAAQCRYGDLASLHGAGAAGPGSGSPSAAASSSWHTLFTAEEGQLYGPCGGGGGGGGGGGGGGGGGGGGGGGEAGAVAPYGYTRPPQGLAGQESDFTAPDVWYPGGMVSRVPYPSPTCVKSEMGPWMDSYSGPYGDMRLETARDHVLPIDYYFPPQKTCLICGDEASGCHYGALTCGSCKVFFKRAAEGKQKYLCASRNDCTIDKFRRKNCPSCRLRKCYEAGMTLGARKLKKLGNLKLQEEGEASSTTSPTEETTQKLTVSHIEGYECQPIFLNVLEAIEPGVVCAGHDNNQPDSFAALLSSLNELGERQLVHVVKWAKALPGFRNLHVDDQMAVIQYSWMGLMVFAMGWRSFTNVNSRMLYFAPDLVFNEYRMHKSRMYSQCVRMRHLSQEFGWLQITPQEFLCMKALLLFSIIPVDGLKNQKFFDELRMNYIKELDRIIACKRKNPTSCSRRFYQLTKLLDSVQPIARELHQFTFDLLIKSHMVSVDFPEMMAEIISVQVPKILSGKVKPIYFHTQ
# Method in brief: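 Activation was read as beta-lactamase FRET signal from LiveBLAzer B/G substrate, added for 2 h at room temperature. Before that, GeneBLAzer AR-UAS-bla GripTite (HEK293) cells had 16 h compound exposure at 37C.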
# [4] = qHTS assay to identify aromatase inhibitors - cell viability counter screen (AID 743084); conditions: MCF-7 aro ERE viability, CellTiter-Fluor, 24 h; activity change, negative = cytotoxicity: at 70.3 µM (top of the series);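 further: cells stimulated with testosterone during compound exposure; on the % scale 0 is the no-effect control and ±100 the full control effect; nearly all actives have a fitted effect of over 55% in size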
# [5] = qHTS assay to identify small molecule agonists of the androgen receptor (AR) signaling pathway in the presence of an antagonist - cell viability counter screen (AID 1259379); further: potency means the concentration at half of the fitted maximal effect; nearly all actives have a fitted effect of over 25% in size
# Method in brief: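 Counter screen for cell viability run in parallel with the AR agonist-mode luciferase assay. MDA-kb2 cells were co-treated with nilutamide (3.0uM final) and compounds, then incubated 16 hr at 37C, and CellTiter-Fluor fluorescence was measured.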
# [6] = qHTS assay to identify small molecule antagonists of the TGF-beta/Smad signaling pathway (AID 1346924; active means well fitted inhibition curve with a large enough effect in the signal ratio in the repeat runs, not every such curve was filed as active; inconclusive means weak or mixed curves; the % refers to the signal ratio; further: potency means the concentration at half of the fitted maximal effect); conditions: SBE-bla HEK293T, TGF-beta/Smad reporter, beta-lactamase ratio; activity, negative = inhibition: at 76.8 µM (top of the series) unless noted
# Method in brief: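 Read-out was FRET-substrate fluorescence (405 nm excitation; 460 and 530 nm emission) after 2 h at room temperature. Before that, cells carrying a Smad-binding-element beta-lactamase reporter in HEK 293T had been stimulated 5 h at 37 C with TGF-beta1 (0.25 ng/mL addition solution) in the presence of test compound.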
# Tags describe the fitted curve by direction and shape or compound fluorescence and quenching.
compound,measurement,setting,value
COCC(=O)N(c1c(C)cccc1C)C(C)C(=O)OC (stereo unspecified),Potency,[1],inactive
[O-][Br+2]([O-])O,Potency,[2],"inconclusive: 10.6 µM [falling, partial curve, poor fit]"
same,activation,[3],inconclusive: -8.45%
same,Potency,[4],inactive
same,Potency,[5],"inconclusive: 29.8 µM [cytotoxic, partial curve]"
CCNP(=S)(OC)O/C(C)=C/C(=O)OC(C)C (stereo unspecified),Potency,[6],"inconclusive: 17.4 µM [cytotoxic, partial curve, poor fit]"
